# Test results published in the supplement of paper PMC4166925.
# ± gives the standard deviation of the averaged measurements. In all, about 33,000 sequences were measured (“E-score (dimensionless, -0.5 to 0.5)”: median about -0.046, highest 2% from about 0.36 on). The list shows a part of the results.
# Tested on: T1, SpTbr T-box DNA-binding domain (GST fusion)
# T1 sequence: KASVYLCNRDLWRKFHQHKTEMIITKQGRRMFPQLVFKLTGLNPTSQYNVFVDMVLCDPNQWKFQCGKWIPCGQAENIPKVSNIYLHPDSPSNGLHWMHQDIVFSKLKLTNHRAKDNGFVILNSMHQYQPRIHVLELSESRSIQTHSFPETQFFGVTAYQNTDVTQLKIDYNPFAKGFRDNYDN
# Test: PBM E-score of 8-mer (E-score (dimensionless, -0.5 to 0.5)); Tbr is Tbrain of the sea star Patiria miniata (Pm) or the sea urchin Strongylocentrotus purpuratus (Sp); higher = stronger binding preference; most listed sequences are background and not binding sites
# Conditions: the construct has about 5 more residues each side
# How it was run: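 Primer extension turned Universal Agilent oligonucleotide arrays double-stranded. They were incubated with 200 nM protein in PBS (pH 7.5); the protein was a GST-fused Tbr T-box DNA-binding domain expressed in BL21 E. coli at 20 °C and purified on glutathione. Every ungapped 8-mer was scored from the scanned, quantified probe intensities, and the Universal PBM Analysis Suite gave each an enrichment E-score averaged over duplicate arrays.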
row,Sequence,PBM E-score of 8-mer
1,GTTCGGGA,-0.236 ± 0.063
2,GAGCAAGA,-0.187 ± 0.011
3,CAGCCTCG,-0.0479 ± 0.0025
4,CCTGCCCG,-0.0604 ± 0.037
5,AGAATGTG,0.304 ± 0.03
6,GTGAGATA,0.313 ± 0.023
7,AGACTAAA,-0.119 ± 0.087
8,CACGCCAG,0.231 ± 0.0028
9,ATCCGAGC,-0.175 ± 0.052
10,CCACGAAG,-0.13 ± 0.028
11,CTTTACCA,0.00926 ± 0.048
12,CCGTGCCG,-0.0886 ± 0.13
13,CGTACAAA,-0.24 ± 0.015
14,CATTATCA,0.108 ± 0.039
15,ACCGCTAA,0.0775 ± 0.031
16,AGACAATA,-0.0805 ± 0.021
17,AGCGAAAG,-0.123 ± 0.022
18,AATTTAAT,-0.319 ± 0.045
19,GCGAGAGC,0.217 ± 0.043
20,GCAAATGA,-0.0363 ± 0.045
21,AATTTGCT,-0.0196 ± 0.11
22,CAAATGCA,-0.268 ± 0.027

row,Sequence,PBM E-score of 8-mer
1,TAGTATGA,-0.0698 ± 0.043
2,CGAAAGAG,-0.01 ± 0.052
3,CCGAGCCA,-0.0292 ± 0.017
4,TCAGGAAA,0.02 ± 0.024
5,ATATTGGA,-0.239 ± 0.051
6,AAGTGATC,0.0544 ± 0.029
7,CTCGGTCA,-0.12 ± 0.045
8,GATTACGC,0.0985 ± 0.028
9,ACCCGGGG,-0.0776 ± 0.019
10,TAGTGGGA,-0.0317 ± 0.03
11,CCTACGCC,0.0386 ± 0.019
12,AGAGCGAG,-0.192 ± 0.026
13,ACACACCA,0.287 ± 0.013
14,GTAGACGA,-0.126 ± 0.006
15,ATCACGCC,0.403 ± 0.0051
16,GACCAACA,0.0574 ± 0.006
17,ATAGAAGA,-0.317 ± 0.033
18,GCATCATA,0.0807 ± 0.004
19,ACATAGGT,0.221 ± 0.02
20,TCATAGAA,-0.301 ± 0.033
21,GACGATAC,-0.155 ± 0.015
22,GAAAGTAC,-0.136 ± 0.033

row,Sequence,PBM E-score of 8-mer
1,AGAGCCCC,-0.0852 ± 0.056
2,ACACTTGA,0.347 ± 0.0096
3,CCACATAC,0.105 ± 0.015
4,GGAGCGAA,-0.0764 ± 0.054
5,ATGGCATC,-0.0575 ± 0.033
6,AGATTTCA,-0.0179 ± 0.064
7,TATTAAGA,-0.213 ± 0.075
8,ATCTATTC,0.0975 ± 0.04
9,GTATTTGA,-0.208 ± 0.0046
10,CCTGTTCC,-0.1238 ± 0.00089
11,CGTCGCAC,0.327 ± 0.0036
12,ACGGGATG,-0.0468 ± 0.046
13,CGGTACGC,0.0539 ± 0.0026
14,GGGCAGTA,-0.153 ± 0.027
15,GGGTCACA,0.225 ± 0.021
16,CGCCATAA,0.0812 ± 0.1
17,GAGAACAC,0.253 ± 0.04
18,GAACCACA,-0.0748 ± 0.058
19,TCGAAGCA,-0.204 ± 0.022
20,ACCCAGAT,-0.0905 ± 0.038
21,ATAAGTCC,-0.249 ± 0.073
22,GACGTGAC,0.235 ± 0.032

row,Sequence,PBM E-score of 8-mer
1,CGGACGTC,-0.0698 ± 0.06
2,TACGGACA,-0.168 ± 0.017
3,AGAATGTC,-0.146 ± 0.031
4,ATCTTGTA,-0.11 ± 0.075
5,TACACGCA,0.0891 ± 0.028
6,TAAGCCAA,-0.358 ± 0.0043
7,ACACAATA,0.302 ± 0.021
8,GACAGTGA,0.167 ± 0.038
9,GAAAGCGA,0.0237 ± 0.13
10,AACTGCTA,0.0567 ± 0.044
11,AGCCTCTG,-0.113 ± 0.019
12,GATCTAGA,-0.0935 ± 0.028
13,ACATCCAT,-0.0117 ± 0.044
14,AACTAAGA,-0.0642 ± 0.072
15,CCCAAAGA,-0.272 ± 0.059
16,CAGGTGTC,0.4679 ± 0.0019
17,CGCCAAAC,0.145 ± 0.012
18,GAACCTAA,-0.296 ± 0.014
19,GGAGGGAA,-0.166 ± 0.0078
20,CAGACAGG,-0.0657 ± 0.12
